Out of some 310,000 compounds screened, about 2,200 (0.71%) showed an effect of 50% or more. The effect is printed as a negative number. This is one part of the list.

For the assay, the target named is human ether-à-go-go-related gene (hERG) potassium channel (human, UniProt Q12809). Put plainly: primary screen, population patch clamp on CHO cells stably expressing hERG.
Chain of human ether-à-go-go-related gene (hERG) potassium channel (Q12809 whole entry, looked up): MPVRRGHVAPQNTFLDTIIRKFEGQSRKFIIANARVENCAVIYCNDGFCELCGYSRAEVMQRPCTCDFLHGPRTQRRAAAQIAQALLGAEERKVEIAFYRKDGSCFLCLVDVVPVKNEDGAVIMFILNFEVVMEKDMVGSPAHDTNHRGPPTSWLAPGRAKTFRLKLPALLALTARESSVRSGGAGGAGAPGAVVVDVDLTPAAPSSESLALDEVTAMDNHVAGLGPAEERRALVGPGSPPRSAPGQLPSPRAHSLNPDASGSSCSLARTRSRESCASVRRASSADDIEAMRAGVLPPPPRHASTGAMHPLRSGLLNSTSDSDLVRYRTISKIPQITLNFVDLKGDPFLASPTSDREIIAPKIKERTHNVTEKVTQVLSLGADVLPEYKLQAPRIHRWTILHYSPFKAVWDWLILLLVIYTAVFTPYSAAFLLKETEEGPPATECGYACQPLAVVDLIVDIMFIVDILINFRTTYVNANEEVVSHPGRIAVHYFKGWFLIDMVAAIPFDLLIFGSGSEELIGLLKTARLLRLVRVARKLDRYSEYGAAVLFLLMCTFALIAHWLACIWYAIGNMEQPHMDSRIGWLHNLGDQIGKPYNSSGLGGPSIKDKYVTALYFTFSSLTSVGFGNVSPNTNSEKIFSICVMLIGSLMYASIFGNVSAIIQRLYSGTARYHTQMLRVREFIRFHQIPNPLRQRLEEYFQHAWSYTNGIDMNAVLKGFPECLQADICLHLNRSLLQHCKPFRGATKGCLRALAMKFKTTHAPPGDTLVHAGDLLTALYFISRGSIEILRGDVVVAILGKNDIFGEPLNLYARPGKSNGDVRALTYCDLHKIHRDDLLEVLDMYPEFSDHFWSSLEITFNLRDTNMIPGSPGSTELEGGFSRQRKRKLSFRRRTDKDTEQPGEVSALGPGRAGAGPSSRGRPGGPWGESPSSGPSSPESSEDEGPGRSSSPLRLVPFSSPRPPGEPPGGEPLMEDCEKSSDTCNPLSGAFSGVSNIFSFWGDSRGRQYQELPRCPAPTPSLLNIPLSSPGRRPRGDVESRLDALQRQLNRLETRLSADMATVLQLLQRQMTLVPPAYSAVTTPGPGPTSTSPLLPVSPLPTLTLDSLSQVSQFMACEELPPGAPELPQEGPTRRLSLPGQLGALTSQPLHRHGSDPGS
As to `COc1ccccc1N=Nc1ccc(O)c2ncccc12`, the “hERG current change (%, negative = inhibition) at 1uM” value stood at 14.3%. Then `Cc1cc(C)[n+](C)n1CC(O)Cn1c2ccccc2c2ccccc21.[I-]` (stereo not shown), with 7.98%. In the case of `COc1ccc(-c2noc(CCC(=O)NCCc3ccccc3)n2)cc1` it was 17.7%; in that of `COc1ccc(C2/C(=C(/O)c3ccc(C)cc3)C(=O)C(=O)N2CCCN2CCOCC2)cc1` (stereo not shown), 22.3%; in that of `CCc1nc(Nc2ccc(F)cc2)c2oc3ccccc3c2n1.Cl`, 9.34%. In the case of `COc1ccc(OC)c(NC(=O)CSc2nnc(CNC(=O)c3cc(OC)c(OC)c(OC)c3)o2)c1` it was 20.3%; in that of `O=C(Nc1c(-c2ccccc2)nc2ccccn12)c1ccco1`, 0.792%; in that of `O=C(CCc1c[nH]c2ccccc12)NCC1CCCO1` (stereo not shown), 5.78%.

Regarding `COc1ccc(/C=N/NC(=O)C2(C)NC(C)(C)Cc3ccccc32)cc1` (stereo not shown), the “hERG current change (%, negative = inhibition) at 1uM” value came out at 0.973%. In the case of `O=C(Nc1ccc(Oc2ccc3c(c2)C(=O)N(c2ccc(O)cc2)C3=O)cc1)c1cccs1` it was 5.17%. Then `CC(=O)N1CCc2cc(S(=O)(=O)NCCCN3CCC(C)CC3)ccc21`, with 26.9%; and `COc1ccc(C(=O)NCC(=O)N2CCN(C(=O)c3ccco3)CC2)cc1`, with -1.13%. In the case of `CC(=O)N1c2ccc(S(=O)(=O)NCCC(=O)Nc3ccc(F)cc3)cc2CC1C` (stereo not shown) it was 5.82%; in that of `O=C(O)c1cccc(OCc2ccccc2Cl)c1`, 0.845%. `COC(=O)C1=C(CSCc2ccco2)NC(=O)NC1c1cc(C)ccc1C` (stereo not shown): the “hERG current change (%, negative = inhibition) at 1uM” value is reported as -8.26%. Then `O=C(NCc1ccc(F)cc1)c1cccnc1C(=O)O`, with 15.7%; and `Cc1sc2ncnc(N(C)C3CCCCC3)c2c1C`, with 13.8%. `CCOC(=O)Nc1cc(C(=O)OCC)c(C)nc1C`: the “hERG current change (%, negative = inhibition) at 1uM” value amounted to 1.36%. In the case of `CCN(CC(=O)NCc1cccs1)S(=O)(=O)c1ccc(F)cc1` it was -24.1%. Then `Cc1onc(-c2c(Cl)cccc2Cl)c1C(=O)N1CCN(c2ccccc2F)CC1`, with 15.9%; and `Cc1cc(C)nc(NS(=O)(=O)c2ccc(NS(=O)(=O)c3ccsc3)cc2)n1`, with 6.01%.

As for `CC(C)CN1CCC(=O)N([C@H](CSc2ccc(Br)cc2)Cc2ccccc2)CC1`, the “hERG current change (%, negative = inhibition) at 1uM” value is reported as -0.18%. Consider `CCOC(=O)C(NC(=O)CCl)(Nc1ccc(C(O)(C(=O)OCC)C(F)(F)F)cc1)C(F)(F)F` (stereo not shown), for which the “hERG current change (%, negative = inhibition) at 1uM” value is on record as 10.2%. Then `Cc1oc(-c2ccccc2Cl)nc1CSCC(=O)N1CCCC1`, with 0.617%; and `COc1ccc(-c2nn(-c3ccccc3F)cc2CNCCn2nc(C)cc2C)cc1`, with 4.53%; and `Cc1cc(O)c(C=O)c2c1C(=O)Oc1c(CO)c(O)c3c(c1O2)C(O)OC3=O` (stereo not shown), with -1.89%.

Turning to `O=C(Nc1ccc(Oc2c(F)c(F)c(F)c(F)c2F)cc1)OC1CCN2Cc3ccccc3N=C12` (stereo not shown), the “hERG current change (%, negative = inhibition) at 1uM” value is 2.16%. Consider `CC(=O)Nc1ccc(NC(=O)CCn2c(=S)oc3ccccc32)cc1`, for which the “hERG current change (%, negative = inhibition) at 1uM” value is recorded as -0.841%. In the case of `CCN1C(=O)/C(=C/c2nc3ccccc3c(=O)n2-c2ccc(C)cc2)c2ccccc21` it was 15.1%; in that of `COC(=O)C1=C(c2ccc(F)cc2OCc2ccccc2)C[C@@H]2CC[C@H]1N2C(=O)NCCCc1ccccc1`, 13.6%; in that of `CCOc1ccc(N2C(=O)CC(N3CCC(NC(=O)Nc4ccccc4)CC3)C2=O)cc1` (stereo not shown), 13.5%. As to `COCCn1ccc2c(OCC(=O)NCc3ccc(C)cc3)cccc2c1=O`, the “hERG current change (%, negative = inhibition) at 1uM” value is 2.28%. In the case of `O=[N+]([O-])c1cncc([N+](=O)[O-])c1Nc1ccccc1Cl` it was 9.74%; in that of `CCOc1cc(CNn2c(C)nnc2SCC(=O)NC(C)(C)C)ccc1OCC(=O)NC(C)(C)C`, 10.7%; in that of `O=c1cc(CO)oc(CN2CCN(c3ccccc3)CC2)c1O`, 17.3%. In the case of `COC(=O)c1ccc(N=Nc2c(C)[nH]n(-c3ccccc3)c2=O)cc1` it was 15.4%; in that of `Cc1ccc(NC(=O)c2cc(S(=O)(=O)N3CCCCC3)c[nH]2)cc1F`, 8.59%. Then `COc1ccc(C)cc1NC(=O)CNC(C)C(=O)Nc1cc(Cl)ccc1Cl` (stereo not shown), with 6.18%. For the molecule `CC1COc2ccccc2N1S(=O)(=O)c1cc(Cl)ccc1Cl` (stereo not shown), the “hERG current change (%, negative = inhibition) at 1uM” value was determined as 15.7%. In the case of `CCN1CCN(c2cc(C(C)C)nc3c(-c4ccccc4)c(C)nn23)CC1` it was 10.7%; in that of `COC(=O)c1sccc1NC(=O)c1ccc(OC)cc1OC`, 9.09%; in that of `Cn1ccnc1SCC(=O)N1CCc2ccccc21`, -0.415%.

Turning to `CC(C)(Oc1ccc(CCNC(=O)c2ccc(Cl)cc2)cc1)C(=O)O`, the “hERG current change (%, negative = inhibition) at 1uM” value stood at 3.22%. In the case of `CCOC(=O)N1CCN(C(=O)c2ccc(NS(=O)(=O)c3ccc(C)cc3)cc2)CC1` it was 19.5%; in that of `COC(=O)C1=C(c2cccc(OCc3ccccc3)c2)C[C@@H]2CC[C@H]1N2C(=O)NCc1ccc(F)cc1`, 17.7%. In the case of `O=C(C1CCCCC1)N1CCN(S(=O)(=O)c2ccc(Cl)cc2)CC1` it was 6.24%. Then `COc1ccc(C)cc1NC(=O)CSc1ccc(-c2cccnc2)nn1`, with -0.164%; and `O=C1CC(c2ccccc2)Cc2nc(N3CCc4ccccc43)ncc21` (stereo not shown), with 15.5%. `N#CC1=C(N)SC(N)=C(C#N)C1c1ccc([N+](=O)[O-])cc1`: the “hERG current change (%, negative = inhibition) at 1uM” value is listed as -3.05%. In the case of `CC(C)COC(=O)C(C)Nc1n[nH]c(=S)[nH]c1=O` (stereo not shown) it was 13.8%; in that of `CC(C)(Oc1ccc(Cl)cc1)C(=O)Nc1ccc2oc(-c3ccncc3)nc2c1`, 5.28%; in that of `COc1ccccc1NC(=O)CSc1nnc(CC(=O)Nc2ccccc2F)n1C`, 13.3%.

Consider `CCOc1ccccc1C1CC(=O)Nc2c1c(=O)n(C)c(=O)n2C` (stereo not shown), for which the “hERG current change (%, negative = inhibition) at 1uM” value is 11.4%. In the case of `CCn1cc(CN2CCC(n3nccc3NC(=O)CCCc3ccccc3)CC2)c(C)n1` it was 11.3%. Then `Cc1ccc2nc(-c3sc4nc(C)cc(C)c4c3N)[nH]c2c1`, with 10.3%; and `O=C(O)C(=O)O.O=C(c1ccco1)N1CCN(Cc2cccc3ccccc23)CC1`, with 4.89%. Then `Cc1ccc(OCCOC(=O)c2c(-c3ccccc3)noc2C)cc1`, with 19.9%; and `COc1ccc(C2=C(Nc3ccc(C)cc3)c3ccccc3C2=O)cc1`, with 2.96%; and `Cc1ccc(S(=O)(=O)Nc2nc3ccccc3nc2NCC2CCCO2)cc1C` (stereo not shown), with -23.8%. In the case of `O=C(NNC(=O)c1ccc(-n2cncn2)c([N+](=O)[O-])c1)c1cccc(Cl)c1`, the “hERG current change (%, negative = inhibition) at 1uM” value came to 1.02%. Then `COc1ccc(NC(=O)CC(Cc2ccccc2)C(=O)O)cc1` (stereo not shown), with 11.5%; and `C[C@H](NC(=O)N1CCn2c1nc1ccccc12)C(=O)NCc1ccc(F)cc1`, with -5.77%. Then `CCOC(=O)c1c(CN2CCCCC2)n(C)c2cc(Br)c(O)c(CN(C)C)c12`, with 9.82%. As to `CCC(CO)NCc1ccc(-c2ccccc2)cc1.Cl` (stereo not shown), the “hERG current change (%, negative = inhibition) at 1uM” value is 3.58%. Regarding `Cc1ccc(NC(=O)Cn2c(=S)[nH]c3ccccc32)cc1`, the “hERG current change (%, negative = inhibition) at 1uM” value is 14.3%. Turning to `O=C(NC1CC2CCC(C1)N2C(=O)NCc1ccccc1)NC12CC3CC(CC(C3)C1)C2` (stereo not shown), the “hERG current change (%, negative = inhibition) at 1uM” value was determined as 18.6%. Then `O=C(Nc1cc(C(F)(F)F)ccc1N1CCCC1)C1CCCO1` (stereo not shown), with 10.8%; and `CCCc1c(OCCCOc2ccc(OCC(=O)O)cc2)ccc(C(C)=O)c1O`, with 18.4%. Then `O=C(CC1(O)C(=O)Nc2ccccc21)c1cccc(-n2cccc2)c1` (stereo not shown), with 14.8%; and `COC(=O)c1ccc(S(=O)(=O)N2CCOCC2)o1`, with 18.3%; and `COc1ccc(CCCNC(=O)C2CCC(=O)N(Cc3ccccc3F)C2)cc1` (stereo not shown), with 3.51%. Then `O=c1cc[nH]c2ccc([N+](=O)[O-])cc12`, with 4.14%; and `CC(C)N1CC2(c3ccccc3)CN(C(C)C)CC(c3ccccc3)(C1)C2=O`, with -21.5%. Turning to `C/C=C/CSc1nc2c(c(=O)[nH]c(=O)n2C)n1C(C)C`, the “hERG current change (%, negative = inhibition) at 1uM” value turned out to be 2.13%. Then `O=C(Nc1ccccc1C(=O)Nc1ccccn1)c1cccc([N+](=O)[O-])c1`, with -1.21%; and `COc1cccc(-n2c(SCc3cc(=O)oc4cc(O)c(O)cc34)nc3ccccc3c2=O)c1`, with -3.79%.

For `Cc1ccc(/C=N\Nc2cn[nH]c(=O)c2Cl)cc1`, the “hERG current change (%, negative = inhibition) at 1uM” value was -2.76%.

As for `COc1ccc(CC(=O)Nc2ccc(S(=O)(=O)N3CCN(C)CC3)cc2)cc1`, the “hERG current change (%, negative = inhibition) at 1uM” value is given as 10.7%. On to `COc1cc(C2C(C#N)=C(N)Oc3cc(N)ccc32)cc(OC)c1OC` (stereo not shown), for which the “hERG current change (%, negative = inhibition) at 1uM” value is on record as 12.1%. On to `CCn1c(CSc2nc(C)cc(C)n2)nnc1SCC(=O)Nc1nc(-c2ccccc2)cs1`, for which the “hERG current change (%, negative = inhibition) at 1uM” value is -13.4%. In the case of `O=C(Nc1ccccc1C(=O)OCC(=O)N1CCc2ccccc2C1)c1ccco1` it was 1.03%. Then `COc1ccc(C2NC(=S)N3C(c4ccc(OC)cc4)NC(=S)N23)cc1` (stereo not shown), with 11.2%; and `CCCCn1c(=O)[nH]c(=O)c2c1nc(-c1cc3c(cc1Br)OCO3)n2C`, with 8.18%. Then `O=C(c1nn2c(C(F)(F)F)cc(-c3ccc(F)cc3)nc2c1Cl)N1CCOCC1`, with 3.18%. Take `Cc1ccccc1C(=O)Nc1cccc(C(=O)N/N=C/c2ccc3c(c2)OCO3)c1`: the “hERG current change (%, negative = inhibition) at 1uM” value is on record as 7.27%.
